{
  "source": "paper PMC4336329",
  "about": "(PLoS ONE, 2015)",
  "note": "The campaign covered roughly 310,000 compounds. About 14,000 (4.5%) showed an effect of 50% or more. The effect is printed as a negative number. The list shows a part of the results.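 Also: peak tail current of the secondary pulse compared with the same well before compound.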",
  "data": [
    {"target": "human ether-à-go-go-related gene (hERG) potassium channel (human, UniProt Q12809)", "sequence (Q12809 whole entry, looked up)": "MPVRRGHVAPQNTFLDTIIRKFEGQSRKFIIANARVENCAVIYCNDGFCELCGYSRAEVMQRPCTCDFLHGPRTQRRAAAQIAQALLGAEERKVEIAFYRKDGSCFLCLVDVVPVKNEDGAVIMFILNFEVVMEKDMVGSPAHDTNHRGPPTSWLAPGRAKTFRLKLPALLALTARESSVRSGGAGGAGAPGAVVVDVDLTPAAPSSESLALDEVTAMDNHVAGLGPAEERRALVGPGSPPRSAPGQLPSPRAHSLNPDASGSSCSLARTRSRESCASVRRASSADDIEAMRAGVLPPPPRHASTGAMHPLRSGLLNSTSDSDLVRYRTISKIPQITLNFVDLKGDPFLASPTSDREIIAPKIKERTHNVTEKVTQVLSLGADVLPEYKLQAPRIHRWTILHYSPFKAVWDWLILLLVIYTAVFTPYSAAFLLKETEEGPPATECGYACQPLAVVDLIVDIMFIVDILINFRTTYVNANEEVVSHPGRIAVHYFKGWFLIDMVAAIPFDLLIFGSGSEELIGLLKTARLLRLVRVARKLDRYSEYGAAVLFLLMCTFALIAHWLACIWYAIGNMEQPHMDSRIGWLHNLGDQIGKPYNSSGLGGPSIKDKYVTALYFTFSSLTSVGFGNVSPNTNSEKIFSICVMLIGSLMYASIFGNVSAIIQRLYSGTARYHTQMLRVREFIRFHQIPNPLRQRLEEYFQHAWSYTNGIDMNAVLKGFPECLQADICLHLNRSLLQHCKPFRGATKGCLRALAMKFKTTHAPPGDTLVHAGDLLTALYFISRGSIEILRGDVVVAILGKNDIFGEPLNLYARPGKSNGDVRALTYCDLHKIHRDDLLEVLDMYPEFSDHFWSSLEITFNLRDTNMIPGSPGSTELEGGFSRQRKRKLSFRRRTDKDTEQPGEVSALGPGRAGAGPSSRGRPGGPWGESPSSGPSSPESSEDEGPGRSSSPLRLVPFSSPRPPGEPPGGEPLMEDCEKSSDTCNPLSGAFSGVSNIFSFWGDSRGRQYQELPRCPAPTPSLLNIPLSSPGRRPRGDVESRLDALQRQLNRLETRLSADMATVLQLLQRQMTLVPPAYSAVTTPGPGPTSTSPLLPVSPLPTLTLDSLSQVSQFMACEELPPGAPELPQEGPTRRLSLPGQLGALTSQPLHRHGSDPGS", "assay": "primary screen, population patch clamp on CHO cells stably expressing hERG", "units": {"hERG current change (%, negative = inhibition) at 10uM": "%"}, "values": [
      {"smiles": "CSc1ncccc1C(=O)N(C)CC(=O)Nc1cccc(F)c1", "hERG current change (%, negative = inhibition) at 10uM": 16.1},
      {"smiles": "CC1CCN(c2c(NCC3CCC(C(=O)NCCCc4ccccc4)CC3)c(=O)c2=O)CC1", "note": "(stereo not drawn)", "hERG current change (%, negative = inhibition) at 10uM": -1.04},
      {"smiles": "Cc1nnc(SCC(=O)Nc2ccc(Oc3ccccc3)cc2)n1N", "hERG current change (%, negative = inhibition) at 10uM": 8.97},
      {"smiles": "O=C(c1cc2nc(-c3ccco3)cc(C(F)(F)F)n2n1)N1CCN(c2ccccn2)CC1", "hERG current change (%, negative = inhibition) at 10uM": -34.9},
      {"smiles": "Nc1ccccc1NC1=CC(=O)CC(c2ccccc2)C1", "note": "(stereo not drawn)", "hERG current change (%, negative = inhibition) at 10uM": -2.83},
      {"smiles": "CC(Oc1c(Cl)cccc1Cl)C1=NCCN1.Cl", "note": "(stereo not drawn)", "hERG current change (%, negative = inhibition) at 10uM": 16.7},
      {"smiles": "O=C1Nc2ccccc2C1Cc1ccccn1", "note": "(stereo not drawn)", "hERG current change (%, negative = inhibition) at 10uM": 7.32},
      {"smiles": "Cc1nc2ccc3nc(NC(=O)c4ccc(S(=O)(=O)N5CCOCC5)cc4)sc3c2s1", "hERG current change (%, negative = inhibition) at 10uM": 3.49},
      {"smiles": "Cc1cc(C)c(C)c(C(=O)C2OC(=O)C(C)(C)C(=O)C2(C)C)c1C", "note": "(stereo not drawn)", "hERG current change (%, negative = inhibition) at 10uM": 7.7},
      {"smiles": "Oc1ccc(Br)cc1-c1cc(-c2ccccc2Cl)[nH]n1", "hERG current change (%, negative = inhibition) at 10uM": 4.01},
      {"smiles": "CCOC(=O)C1CCCN(S(=O)(=O)c2cc(Br)cc3c2N(C(=O)CC)CC3)C1", "note": "(stereo not drawn)", "hERG current change (%, negative = inhibition) at 10uM": 5.21},
      {"smiles": "CCc1ccc(N(C(=O)c2snc(C(N)=O)c2N)C(C(=O)NCC2CCCO2)c2ccco2)cc1", "note": "(stereo not drawn)", "hERG current change (%, negative = inhibition) at 10uM": -13.2},
      {"smiles": "CCC(C(=O)OCC(=O)N(C)c1c(N)n(Cc2ccccc2)c(=O)[nH]c1=O)c1ccccc1", "note": "(stereo not drawn)", "hERG current change (%, negative = inhibition) at 10uM": 16.9},
      {"smiles": "C=CCn1c(SCC(=O)N2CCCCC2)nnc1-c1ccncc1", "hERG current change (%, negative = inhibition) at 10uM": 9.96},
      {"smiles": "CCO[C@@H]1OC(C(=O)N2CCN(Cc3ccccc3)CC2)=C[C@H](c2csc3ccccc23)[C@H]1CCCO", "hERG current change (%, negative = inhibition) at 10uM": 10.3},
      {"smiles": "O=C(Cc1ccccc1)c1nnc(-c2ccccc2)o1", "hERG current change (%, negative = inhibition) at 10uM": 44.3},
      {"smiles": "CCc1cc(=O)oc2cc(C)cc(OCC(=O)NC3CC3)c12", "hERG current change (%, negative = inhibition) at 10uM": -0.388},
      {"smiles": "O=C(NCCc1ccccc1)c1ccc(CS(=O)(=O)Cc2ccccc2F)o1", "hERG current change (%, negative = inhibition) at 10uM": -19.7},
      {"smiles": "Cc1occc1C(=O)N1CCN(c2ccc([N+](=O)[O-])cc2)CC1", "hERG current change (%, negative = inhibition) at 10uM": -77.7},
      {"smiles": "Cc1nc(-c2ccccc2)nc2[nH]c(-c3ccccc3)cc(=O)c12", "hERG current change (%, negative = inhibition) at 10uM": -8.47},
      {"smiles": "CCN1CCc2c(OCc3ccc(C)cc3)cccc2C1=O", "hERG current change (%, negative = inhibition) at 10uM": -4.07},
      {"smiles": "CCn1cc(CN2CCC(C(=O)Nc3ccc(Oc4cccnc4)cc3)CC2)c(C)n1", "hERG current change (%, negative = inhibition) at 10uM": -18.4},
      {"smiles": "COCCN(CCOC)S(=O)(=O)c1ccc(OC)cc1", "hERG current change (%, negative = inhibition) at 10uM": 8.79},
      {"smiles": "CCN(c1ccccc1)S(=O)(=O)c1cc(C(=O)NCc2ccco2)ccc1C", "hERG current change (%, negative = inhibition) at 10uM": -27.7},
      {"smiles": "Cc1cc(C)c2c(N)c(C(=O)Nc3nccs3)sc2n1", "hERG current change (%, negative = inhibition) at 10uM": 5.76},
      {"smiles": "O=C(Nc1cccc(Cl)c1)N(Cc1nc2ccccc2c(=O)[nH]1)Cc1cccs1", "hERG current change (%, negative = inhibition) at 10uM": -7.01},
      {"smiles": "COc1ccc(CCN2CC(O)=C(c3nc4ccccc4c(=O)[nH]3)C2=N)cc1OC", "hERG current change (%, negative = inhibition) at 10uM": 3.06},
      {"smiles": "Cc1cc([N+](=O)[O-])ccc1NC(=O)COc1nsnc1N1CCOCC1", "hERG current change (%, negative = inhibition) at 10uM": -29.9},
      {"smiles": "COc1ccc(S(=O)(=O)ON=C2CC(C)(C)N(C(C)=O)C(C)(C)C2)cc1", "hERG current change (%, negative = inhibition) at 10uM": 31.1},
      {"smiles": "CC(=O)c1ccc(OC(=O)/C=C/c2ccccc2)cc1", "hERG current change (%, negative = inhibition) at 10uM": 9.56},
      {"smiles": "CN1C(=O)/C(=C/c2ccccc2Cl)Sc2ccc(C(=O)N3CCCC3)cc21", "hERG current change (%, negative = inhibition) at 10uM": -3.65},
      {"smiles": "Cc1cc(=O)n(CC(C)C)c(O)c1C#N", "hERG current change (%, negative = inhibition) at 10uM": 21.2},
      {"smiles": "O=P(COCCO)(c1ccccc1)c1ccccc1", "hERG current change (%, negative = inhibition) at 10uM": -4.96},
      {"smiles": "COC(=O)c1c(Sc2ccccc2)c2ccccc2n1C", "hERG current change (%, negative = inhibition) at 10uM": 11.4},
      {"smiles": "CCN1CCN(c2ccc(S(=O)(=O)N3CCCCC3)cc2NC(=O)/C=C/c2cccc(OC)c2OC)CC1", "hERG current change (%, negative = inhibition) at 10uM": -18.9},
      {"smiles": "CCOc1ccc(CCNC(=O)COC(=O)c2cccnc2Cl)cc1OCC", "hERG current change (%, negative = inhibition) at 10uM": 8.39},
      {"smiles": "Cc1ccc(S(=O)(=O)Nc2nc(C)c(C(=O)NN)s2)cc1", "hERG current change (%, negative = inhibition) at 10uM": 8.62},
      {"smiles": "O=c1cc(-c2ccccc2)nc2c(-c3ccccc3)c(C(F)(F)F)[nH]n12", "hERG current change (%, negative = inhibition) at 10uM": 4.16},
      {"smiles": "Clc1cnc(Oc2ccc(Oc3ncc(Cl)cc3Cl)cc2)c(Cl)c1", "hERG current change (%, negative = inhibition) at 10uM": 1.79},
      {"smiles": "COc1cccc(CC(=O)N(CCC2=CCCCC2)c2c(N)n(Cc3ccccc3)c(=O)[nH]c2=O)c1", "hERG current change (%, negative = inhibition) at 10uM": -9.73},
      {"smiles": "CC1CC(C)CN(C(=O)c2ccc(CNc3c(N4CCCC4)c(=O)c3=O)cc2)C1", "note": "(stereo not drawn)", "hERG current change (%, negative = inhibition) at 10uM": -1.14},
      {"smiles": "O=C(NCc1ccc(N2CCCC2=O)cc1)NC1CCCCC1", "hERG current change (%, negative = inhibition) at 10uM": -5.61}
    ]}
  ]
}
